Data as given in the RNAGym collection of RNA variant scans (doi:10.7554/elife.90254).
Read counts are not given, so values of variants with three or more changes are uncertain.

B1: OR4K15 (parent)
chain: GUUAACGGUCAUAGGCCAUGGAAACUAGGAGCACCAUUUCGCUGCCAGUGAAGAAAUGAACAAAGAAAAUCUGGGCCAGGCAGGCAUCAAAAGAAAUAGUCUUGCGCUCAACCAGAAAGUCUGUAAUCAUUUUAAGGGUA

Variants of: B1
Assay: self-cleavage, relative activity (ratio to wild type); higher = more cleavage; in vitro, sequencing; the parent is a self-cleaving ribozyme
Work on A96G U103C U122C yielded a self-cleavage of 0.39.
In the case of G99A U102C U130A, the self-cleavage is reported as 1.
Variant A114G A118G G123A has a self-cleavage of 0.25.
In the case of A111G U130C A134U, the self-cleavage is reported as 0.02.
A116G A118G A126G showed a self-cleavage of 1.02.
With U102A G115C A116G U122C the self-cleavage was 0.05.
Variant A110G A117G U122A has a self-cleavage of 0.31.
Work on A125G A126U A129C yielded a self-cleavage of 0.8.
U103A A116G U131C showed a self-cleavage of 0.29.
A96U A111U G123A U139C gave a self-cleavage of 0.12.
Variant U102G U130C U131C has a self-cleavage of 0.01.
Work on A111G A116G U124C yielded a self-cleavage of 0.01.
U103C A126G U131C gave a self-cleavage of 0.4.
For U100A U124C A129G, the self-cleavage was 0.1.
Variant A118G U132C A140G has a self-cleavage of 1.26.
U102C A126U U130C gave a self-cleavage of 1.75.
Variant A116G U122C A125G has a self-cleavage of 0.23.
U108C A111U A126G gave a self-cleavage of 0.
For U122C A129G A140G, the self-cleavage was 1.02.
U97C A117G U139A showed a self-cleavage of 2.06.
A98U C105G G137A gave a self-cleavage of 0.02.
In the case of U124C A126U G138A, the self-cleavage is reported as 0.82.
Variant A118G U120C U132C has a self-cleavage of 0.4.
Work on A98G U103C A111G yielded a self-cleavage of 0.02.
For A116G A118G C121U, the self-cleavage was 0.48.
For U103A U108C U131C, the self-cleavage was 0.
With A111G A118U A126G U132C the self-cleavage was 0.
For A117G A118U A135G, the self-cleavage was 0.81.
Variant C109A A126G U133C has a self-cleavage of 0.13.
Work on A96U U103C U122A U127C yielded a self-cleavage of 0.78.
Work on U103C A114U A135U yielded a self-cleavage of 0.01.
In the case of U108C A118G U124A, the self-cleavage is reported as 0.
Work on C101U A118G C128A yielded a self-cleavage of 0.01.
For U108C A126G U132C A134G, the self-cleavage was 0.
In the case of U108C U127A U139A, the self-cleavage is reported as 0.01.
U102G U122C U131C U132C gave a self-cleavage of 0.33.
Work on U100C A111G A118G yielded a self-cleavage of 0.01.
Work on A116G U122C U124A yielded a self-cleavage of 0.47.
With A116G U132A A140G the self-cleavage was 0.2.
In the case of A110G A117G A118C U132C, the self-cleavage is reported as 0.
For U102C A129G A140G, the self-cleavage was 1.13.
Variant U122C A126U U131C has a self-cleavage of 0.92.
With A117G U122C U132A the self-cleavage was 0.91.
Variant U100C A118U A126G has a self-cleavage of 0.6.
Variant A98G A110G U132C has a self-cleavage of 0.05.
In the case of G115A A118U U127A, the self-cleavage is reported as 0.05.
With A111G A114C U122C the self-cleavage was 0.
For A114G U120C A126G U132C, the self-cleavage was 0.03.
Variant A118G U130G U132C has a self-cleavage of 0.41.
Work on U102C A114U U124A yielded a self-cleavage of 0.04.
With U103C A114C A126U the self-cleavage was 0.
In the case of A98G C101U U120G, the self-cleavage is reported as 0.04.
U103C U127C U132C gave a self-cleavage of 0.42.
U122C A129C U131C showed a self-cleavage of 0.82.
In the case of A96G U103C A114U, the self-cleavage is reported as 0.
U100A A126G U130C gave a self-cleavage of 0.22.
With U108C U120C C128U the self-cleavage was 0.01.
With U100A A116G A135G the self-cleavage was 0.09.
U103C U124C G136A showed a self-cleavage of 0.23.
A98U A118G U124C gave a self-cleavage of 2.59.
For A116G A117G A126U, the self-cleavage was 0.5.
A98G U108C U122C showed a self-cleavage of 0.01.
In the case of A111U U124G U131C, the self-cleavage is reported as 0.05.
Work on G99U U100C A116G A118U yielded a self-cleavage of 0.04.
G99A U100C A118G gave a self-cleavage of 1.87.
In the case of U97C A110C A111U, the self-cleavage is reported as 0.
Work on A110U A118G A135G G138A yielded a self-cleavage of 0.49.
For U97C U102C A111G, the self-cleavage was 0.01.
With G123A A126G U133C A134G the self-cleavage was 0.
In the case of A96U U97A A110U A118U, the self-cleavage is reported as 0.38.
A116U A117G U130C showed a self-cleavage of 0.01.
In the case of U108A A111G U122C, the self-cleavage is reported as 0.
Variant U100C U127C G137U has a self-cleavage of 1.5.
A111G A114G A125G showed a self-cleavage of 0.
Work on A111U U122C A126G yielded a self-cleavage of 0.05.
Variant A114G A117G U131C has a self-cleavage of 0.11.
For U102C A117U U139C, the self-cleavage was 1.02.
For U120C U124C A126U U127A, the self-cleavage was 0.49.
With U97C A135G G138U the self-cleavage was 1.06.
A98U U108C U132C gave a self-cleavage of 0.01.
Variant A110G A117G A118G has a self-cleavage of 0.16.
Variant C109U A118G A126G has a self-cleavage of 0.11.
A117G A118G A129G showed a self-cleavage of 0.38.
With U103C U124A U130C the self-cleavage was 0.17.
In the case of C105U U120A U130C, the self-cleavage is reported as 0.01.
C101U A110C A116G gave a self-cleavage of 0.1.
Variant A111G C121U U124A has a self-cleavage of 0.01.
With A98G U108C A117G the self-cleavage was 0.01.
In the case of U103C A126U U131C, the self-cleavage is reported as 1.16.
With G106A A111G U122C the self-cleavage was 0.
With A117G U124C A135G the self-cleavage was 1.13.
A114U U120C C121A showed a self-cleavage of 0.1.
Variant U102C A117G U132C has a self-cleavage of 2.24.
Variant A96U A135U A140U has a self-cleavage of 1.58.
For U108C A126G A140U, the self-cleavage was 0.01.
With A126G U127C A140G the self-cleavage was 0.68.
U102G U103C A116U showed a self-cleavage of 0.03.
Work on U102C U120C U127C yielded a self-cleavage of 1.51.
